± gives the standard deviation of the averaged measurements. The list shows a part of the results.

The test system of the assay is PfAP2-LT AP2 domain (GST-tagged). Nature of the assay: gcPBM binding intensity (ln(normalized median fluorescence intensity)); higher = stronger DNA binding. The essentials: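 An Agilent 4 × 180k array carrying primer-extended double-stranded 36-bp intergenic genomic probes and negative controls received GST-tagged P. falciparum DNA-binding domains expressed in E. coli, about 25 μg on average, for 1 h. The binding buffer contained 1× PBS, 1% milk, 0.2 mg/ml BSA, 0.5% salmon testes DNA and 0.03% Triton X-100. Binding intensity is the top Masliner-normalised natural-log median intensity across replicate spots of either probe orientation, read after Alexa488 anti-GST antibody staining and a 488 nm scan.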
Turning to “CACATATACTTCTGTGCACACGAATATTTTTCTTCT [CACACA_site1408]”, the “gcPBM binding intensity (ln)” value turned out to be 9.33 ± 0.45.

Take “AAAATATAATATAATGCACACATAAACAAAAAAAAA [CACACA_site8161]”: the “gcPBM binding intensity (ln)” value was 9.18 ± 0.59.

Take “TTTTTTTTTTTTTTGGGTACATAATAATAACAAGTG [XGTACX_site1034]”: the “gcPBM binding intensity (ln)” value was 8.29 ± 0.31.

Take “TTTTATTTAACTCATAATTTTTTAAAAAACAATTAT [XGTACX_negctrl_site19]”: the “gcPBM binding intensity (ln)” value amounted to 8.3 ± 0.53.

In the case of “CATACAGTATTATACTGTACCCATACAAAAAAATAT [XGTACX_site6130]”, the “gcPBM binding intensity (ln)” value amounted to 8.83 ± 0.48.

Regarding “AAATAAAAAAAATTTGCACACCTTCAAAGTAATATA [CACACA_site1583]”, the “gcPBM binding intensity (ln)” value came to 8.77 ± 0.39.

Turning to “TTTTTAATATTCTATGCATGCATCGCATATTTGGTT [TGCATGCA_site1004]”, the “gcPBM binding intensity (ln)” value worked out at 8.98 ± 0.51.

“CTTATTTAAGAGTATGAACACACATCATACACATAT [CACACA_site9205]”: the “gcPBM binding intensity (ln)” value worked out at 9.07 ± 0.34.

Regarding “TTAACATTATATGAAGGTACAGAAAAAAAAAAATTA [XGTACX_site8530]”, the “gcPBM binding intensity (ln)” value is 8.46 ± 0.54.

Consider “TTTCTTATAGATTTTAATCCTCTATCAAAAAAAGAA [GTGCAC_negctrl_site162]”, for which the “gcPBM binding intensity (ln)” value is 7.88 ± 0.38.

On to “GTGTGCTTTTTACGAGTGCAAGTATTTTGGTGGTTA [GTGCAC_site9496]”, for which the “gcPBM binding intensity (ln)” value amounted to 9.04 ± 0.47.

For the sequence “GTACACATATAATATACACACAACAAATATGCACAT [CACACA_site1010]”, the “gcPBM binding intensity (ln)” value was determined as 9.5 ± 0.3.

In the case of “TAATTTTTATTTATAATAATATATGACATATATCCA [XGTACX_negctrl_site359]”, the “gcPBM binding intensity (ln)” value amounted to 8.52 ± 0.45.

On to “GGAATAATATAAAACACACACATAAATATAAATATA [CACACA_site3376]”, for which the “gcPBM binding intensity (ln)” value worked out at 9.45 ± 0.35.

For the sequence “TAATTTTTTTTTTTTTTTTTTTTTTTTTTTTTCCTT [CACACA_negctrl_site1095]”, the “gcPBM binding intensity (ln)” value came to 8.11 ± 0.6.

As to “TTAAGAATATCTACATGTACATACCAAAGAAATACA [XGTACX_site3125]”, the “gcPBM binding intensity (ln)” value turned out to be 8.71 ± 0.4.

As to “TTTTATTCCTATTTATTTATATTTTTGTCTTATATC [CACACA_negctrl_site125]”, the “gcPBM binding intensity (ln)” value was determined as 8.88 ± 0.54.

On to “ATGAACAAAATGTAATGTACGAATAATTATTCATAT [XGTACX_site4812]”, for which the “gcPBM binding intensity (ln)” value was 8.98 ± 0.43.

With “TATAGACAAACACATACATGCATACATACATACATA [TGCATGCA_site273]”, the “gcPBM binding intensity (ln)” value amounted to 9.22 ± 0.33.

With “AAAAAAAAGTTCTACACACACAAAAAAATATTTTTT [CACACA_site2309]”, the “gcPBM binding intensity (ln)” value was 9.17 ± 0.38.

As for “AATGACCATTTTTAAAATTACAAATACATACAACTG [TGCATGCA_negctrl_site420]”, the “gcPBM binding intensity (ln)” value was 8.56 ± 0.41.

Turning to “AATGTCAATTTTAATAGTACACAAATATATATATAT [XGTACX_site521]”, the “gcPBM binding intensity (ln)” value came to 8.98 ± 0.18.

On to “AAGTATTATTATAAGACACACATGTATTTAAGTATA [CACACA_site4922]”, for which the “gcPBM binding intensity (ln)” value came out at 9.01 ± 0.5.

“TTATAATAAGATTGTTGTACTTATATTCCTTCTATA [XGTACX_site3173]”: the “gcPBM binding intensity (ln)” value is 8.74 ± 0.47.

For “AATACATATTCAAAGGTGCAAAATAAAAATATACAT [GTGCAC_site9743]”, the “gcPBM binding intensity (ln)” value is 9.19 ± 0.46.

Regarding “TAGTTATAAGAGTTACAAAGAATACCGGAAATATAG [CACACA_negctrl_site1829]”, the “gcPBM binding intensity (ln)” value worked out at 8.84 ± 0.43.

As for “TGTTTTGTATATATAGCATGCAGTAAGGGAAAAAAA [TGCATGCA_site652]”, the “gcPBM binding intensity (ln)” value came to 8.76 ± 0.38.

In the case of “TCGTTTCATATTTATCATGAGATAATCACACGAACA [TGCATGCA_negctrl_site497]”, the “gcPBM binding intensity (ln)” value was 8.7 ± 0.38.

With “CTCCATATGAAACACACACACAAATGAAAAAAATAT [CACACA_site3018]”, the “gcPBM binding intensity (ln)” value stood at 9.82 ± 0.4.

As to “TTTAAAAAAATATATACACACATATATATATATATA [CACACA_site617]”, the “gcPBM binding intensity (ln)” value stood at 9.48 ± 0.25.

For “AATTAACAAAGACACACACACACACGCACAAAAAAA [CACACA_site6388]”, the “gcPBM binding intensity (ln)” value is 10.2.

As for “ATAGAAATAAAATAAAATAAAAAAAAAATAATGAAA [CACACA_negctrl_site1565]”, the “gcPBM binding intensity (ln)” value amounted to 8.64 ± 0.44.

For “ATATATAATAAATACACACACATGTATTTATAAATA [CACACA_site5135]”, the “gcPBM binding intensity (ln)” value worked out at 9.12 ± 0.37.

For the sequence “TGAATTATAAATTATAGTACTTTATAATATGAACAT [XGTACX_site2317]”, the “gcPBM binding intensity (ln)” value turned out to be 8.46 ± 0.45.

As to “TCTGTGCACGCATGAAGTACAAAAAAGGTTTCCAGT [XGTACX_site5049]”, the “gcPBM binding intensity (ln)” value is 9.11 ± 0.47.

On to “TATATTTTTTTAATATGTACATATATATATAAAACA [XGTACX_site2171]”, for which the “gcPBM binding intensity (ln)” value is 8.3 ± 0.44.

In the case of “CTATATACTAAATGCACACTTATATATTTATATATA [CACACA_site2454]”, the “gcPBM binding intensity (ln)” value turned out to be 8.77 ± 0.42.

For “CATATATATATATATTGTACAAGATTGTTTTTTTAT [XGTACX_site3913]”, the “gcPBM binding intensity (ln)” value came to 8.79 ± 0.3.

For “ATGATCATAAGACACACACACAAAAAAAAAAAAAAA [CACACA_site6936]”, the “gcPBM binding intensity (ln)” value stood at 9.38 ± 0.64.

In the case of “ATTTAAATAATATGTACACACATTTAAAAAATTATA [CACACA_site2816]”, the “gcPBM binding intensity (ln)” value came out at 8.76 ± 0.44.

As for “TAAGAAAAAGGCACACGTACATAATTCAAAATAAAT [XGTACX_site982]”, the “gcPBM binding intensity (ln)” value came out at 9.12 ± 0.5.

Regarding “ATATATATGTATGTATGTACTTATTTATTTATTTAT [XGTACX_site7740]”, the “gcPBM binding intensity (ln)” value came to 8.81 ± 0.45.

For “CCAATGAGGATATATACACACATACATTAAAAAAAT [CACACA_site5090]”, the “gcPBM binding intensity (ln)” value was 9.17 ± 0.48.

Regarding “TTTTTTTTCACACATTGTACTTTTTTATAAAATATA [XGTACX_site4351]”, the “gcPBM binding intensity (ln)” value was determined as 8.71 ± 0.42.
